The other results are listed elsewhere or left out.
B1: ENSG00000107863:be:win_2151|CDS|ENSG00000107863|bound_else_gene|NA|bound_elsewhere_windowed (ssRNA)
RNA: GGGAGUUCUACAGUCCGACGAUCUUUACAAGAGGCUGAAACUGAGCAAUCAGAUACUUUAGAUAAUAAAGAAGCUGUCAUCCUAAGGGAAAAACCUCCAUCUGGACGCCAGACACCGCAGCCUUUAAGGCAUCAGUCUUACAUCAACAGAGGAUUGAGCAUCA
B2: chr6:21598408:21598509:+|3pUTR|ENSG00000124766|msi1|FALSE|bound_elsewhere (ssRNA)
RNA: GGGAGUUCUACAGUCCGACGAUCCGUUAAGGGUUUUUGUUUUUAAACUUUUUUUUGCCAUCCAUCCUGUGCAAUAUGCCGUGUAGAAUAUUUGUCUUAAAAUUCAAGGCCACAAAAACAAUGUUUGGGGGAAAAAAAAGAAAACAACAGAGGAUUGAGCAUCA
B3: chr8:47773456:47773635:-|3pUTR|ENSG00000253729|msi1_unk|FALSE|overlapping (ssRNA)
RNA: GGGAGUUCUACAGUCCGACGAUCGUUUUUUCCUUUCAUUUUAUUCUCUUCUAGUUUUGACAUUUUAUGAUAGAUUUGCUCUCUAGAAGGAAACGUCUUUAUUUAGGAGGGCAAAAAUUUUGGUCAUAGCAUUCACUUUUGCUACAACAGAGGAUUGAGCAUCA
B4: chr15:78897113:78897311:+|3pUTR|ENSG00000185787|unk|total|mutant (ssRNA)
RNA: GGGAGUUCUACAGUCCGACGAUCUAACAAUUGAUGUUUGUUUUCUGUUUGAUUUUAAACAGAGAAAAAAUAAAAGGGGGUAACCGCUCCUUUUUUCUUCUUUCUUUUUUUUUUUCAUUUCAAAAUUGCUGCCAGUGUUUUCAACAACAGAGGAUUGAGCAUCA
B5: chr2:25232207:25232317:-|3pUTR|ENSG00000119772|unk|FALSE|unique (ssRNA)
RNA: GGGAGUUCUACAGUCCGACGAUCGGUGAGGGCCCGACGGGCAGGUGCUUGCCUGGGUAGAUGGGGUGUAGAUAUGUGGCAUAUAGAGAUAUAUAUUUUAUAAUGGGAGGGGGGAUGGCACCUCCUGGGACUGGUAGAGCUGGGCAACAGAGGAUUGAGCAUCA
B6: chr5:10971835:10973713:-|three_prime_utr|ENSG00000169862|control|control|control (ssRNA)
RNA: GGGAGUUCUACAGUCCGACGAUCGCAUGUGCAUGCAUACCACAAGACAUUUCUUUCUGUUUUGUUUUUUUCUCCUGCAAAUUUAGUUUGUUAAAGCCUGUUCCAUAGGAAGGCUGUGAUAACCAGUAAGGAAAUAUUAAGAGCCAACAGAGGAUUGAGCAUCA
B7: chr10:11920118:11920232:-|3pUTR|ENSG00000151461|unk|FALSE|unique (ssRNA)
RNA: GGGAGUUCUACAGUCCGACGAUCGUAGUAUAUUUAGUCGGAGAGCACAUCUGUAUGCGACAACUUGAUUACAUCUUUUUUUCUAGCUAUUUUGCAUUUUUUCUUUUACCAUGUUUCAGUUUCUGCAUGUAGAUUUAAAUAAAACAACAGAGGAUUGAGCAUCA
B8: chr16:18805221:18805325:-|3pUTR|ENSG00000157106|unk|FALSE|bound_elsewhere (ssRNA)
RNA: GGGAGUUCUACAGUCCGACGAUCAAGAAUUCUAUGUUCUGAAAUGCACACUUUUAGAAUGUUUUUCUUUGAAAACAGGCUAAUAGUUUUUUCUUUUUUUGACAAAGUUUCAGCUCCUCUUUAAAGUUAUUGUGUCAUUUUUCUCAACAGAGGAUUGAGCAUCA
B9: chr2:1633824:1633925:-|3pUTR|ENSG00000130508|msi1|total|mutant (ssRNA)
RNA: GGGAGUUCUACAGUCCGACGAUCAUUUAAUUCUUUUAAAAUGAAAAAUUGGUGCUACUAUUAAAUUGCACAGUUGAAUCAUUCCGGCGCCUAAAUUGAUUUUGCCUCCCAACACCAUUUCUUUUUAAAUAAAGCAGGAUACCUCAACAGAGGAUUGAGCAUCA
B10: chr16:85089731:85089832:+|3pUTR|ENSG00000135709|msi1|FALSE|unique (ssRNA)
RNA: GGGAGUUCUACAGUCCGACGAUCUUGGAAGGUUUCCCUCCGGGGAAUGCCUCCCUGGAAUGUUCCAGAGACGGAACAUUCUCUAGAGACAACAGUCUGUGCUGCAGAUUGGUUGGAUCACAGAAUGUGUGUCUGGGGCAUUAUCAACAGAGGAUUGAGCAUCA
B11: chr2:135868693:135868794:-|CDS|ENSG00000076003|msi1|FALSE|unique (ssRNA)
RNA: GGGAGUUCUACAGUCCGACGAUCCCCAGAGCUUGUGAGCGGAACUUUUCUGUGCUUGGACUGUCAGACAGUGAUCAGGGAUGUAGAACAGCAGUUCAAAUACACACAGCCAAACAUCUGCCGAAAUCCAGUUUGUGCCAACAGCAACAGAGGAUUGAGCAUCA
B12: ENSG00000070961:be:win_4701|3pUTR|ENSG00000070961|bound_else_gene|NA|bound_elsewhere_windowed (ssRNA)
RNA: GGGAGUUCUACAGUCCGACGAUCUUUUCUAAUCUUUAGAGACCUUCACACAGCAUGAGGGCUGUUGGCAUUUUGAAAAAGGUUAAUAAGUAGAAGCAUACAUGUUUUCCUUUUGUUUUUGAAACUUGUUUGUAAACAUAAAUACAACAGAGGAUUGAGCAUCA
B13: chr2:32415991:32416109:+|CDS|ENSG00000115760|unk|total|mutant (ssRNA)
RNA: GGGAGUUCUACAGUCCGACGAUCUGACAUUUCUACUCUUGGACACCUGGUAAUAACCACUCAGGGAGGAUAUGUAAAAAUACCCGAUCUUUCAAACUUUGAAAUUUUGGCCAAAGUGGAGCCUCCCAAAAAGGAGGGCACUGACAACAGAGGAUUGAGCAUCA
B14: chr1:31365252:31365939:-|three_prime_utr|ENSG00000121769|control|control|control (ssRNA)
RNA: GGGAGUUCUACAGUCCGACGAUCAUCCAGUUCCAGUUCCCAUGGUGUAUGUGGUUUUUUUUUUUUUUUUUUAACUGCACUCAUAGGGUGCUCUGAGGUCAAUAAAGCAGAGCCAAGGCCACCCAGUUGCCUUUUUGCCUUUGGCAACAGAGGAUUGAGCAUCA
B15: ENSG00000136451:be:win_4251|3pUTR|ENSG00000136451|bound_else_gene|NA|bound_elsewhere_windowed (ssRNA)
RNA: GGGAGUUCUACAGUCCGACGAUCCUAAACAGUUGUAUUAGAUAAUCCUUAAAUCUGACAUCCAGCCUGUUACGCUCUAGGGCUCGCUGCUUGGCCUGCGUUUGCUUUUUAUUGUGUAUCCGUUCCCCUCCUACGGUGUGCUCCCAACAGAGGAUUGAGCAUCA
B16: chr8:30995801:30996592:-|three_prime_utr|ENSG00000172733|control|control|control (ssRNA)
RNA: GGGAGUUCUACAGUCCGACGAUCUUGUUUUUUUUAAUUCAUCAAGCCUUUCGUUUUCAAACCACCAUUUGUCAGCCUUGAGGUAGAGAGACAUAUAGAUUUGAAAAUACUUUCUUAAGAGAUCAUGUAACUAUAUAACUCUGACAACAGAGGAUUGAGCAUCA
B17: chr8:102207567:102207681:-|3pUTR|ENSG00000048392|unk|FALSE|unique (ssRNA)
RNA: GGGAGUUCUACAGUCCGACGAUCUAUUAAUUGCAAUGAUGUUGUAAUAAAAUACUCUCAUUUCCUUAAAAUAAUUGUGAUUCUAGGUCCUAGGAUCUAGAAUUAGAUCUUUGUAUUUUUAAUGCUUAGGGGAAGAAUAUAAGUCAACAGAGGAUUGAGCAUCA
B18: chr1:205657850:205659233:-|three_prime_utr|ENSG00000158715|control|control|control (ssRNA)
RNA: GGGAGUUCUACAGUCCGACGAUCACUUCCAGCACAUUGGGGUGGAGGGCCUGCCUCACUGGGUCCCAGCUCCCCGCUCCUGUUAGCCCCAUGGGGCUGCCGGGCUGGCCGCCAGUUUCUGUUGCUGCCAAAGUAAUGUGGCUCCAACAGAGGAUUGAGCAUCA
B19: chr20:1375301:1375603:-|CDS|ENSG00000088832|control|control|control (ssRNA)
RNA: GGGAGUUCUACAGUCCGACGAUCGGUAUGCUCUCUCAUUUGUUUUGUUUUGCUUUCUAGUAUUUACCUUUUAUAUUUUUUUAUAGGUGGCAUAUUUAUACGGUUCAAAAAUAAAAAAAGUGAAAAGUCUCACCCUCAUGCCAUCAACAGAGGAUUGAGCAUCA
B20: chr11:112070992:112071283:-|CDS|ENSG00000150773|control|control|control (ssRNA)
RNA: GGGAGUUCUACAGUCCGACGAUCAAUAAAAGGAAGCAUUCAAAGAAUGAAACAAAAUCUGAUGGGAAUCCAAACUGAUUCCAUAGAUUUAAGAGAAAAAAUGAGAAGGGGUAAGUUGAUGAUUGUAAAUGGAAAAUUAAACUGCAACAGAGGAUUGAGCAUCA
B21: chr1:51356092:51356193:-|3pUTR|ENSG00000085832|unk|total|mutant (ssRNA)
RNA: GGGAGUUCUACAGUCCGACGAUCUUCAGAGAUAAGGAAAAAUAUUUUGCACAGAUUUACUCCACUAUGGAAAAGGGAUGCUGCCGGUUGAACCAUUACCGCCUCAGAUUCGAUCUUUUCCUAACUAAAAAUAUUAAAGCCUCACAACAGAGGAUUGAGCAUCA
B22: chr11:35229396:35229958:+|3pUTR|ENSG00000026508|msi1|FALSE|unique (ssRNA)
RNA: GGGAGUUCUACAGUCCGACGAUCAUAUGUAUUCCUGAUCGCCAACCUUUCCCCCACCAGCUAAGGACAUUUCCCAGGGUUAAUAGGGCCUGGUCCCUGGGAGGAAAUUUGAAUGGGUCCAUUUUGCCCUUCCAUAGCCUAAUCCAACAGAGGAUUGAGCAUCA

Target: MSI1 full-length (mouse, UniProt Q61474 1-362)
Sequence of UniProt Q61474 (Q61474 whole entry): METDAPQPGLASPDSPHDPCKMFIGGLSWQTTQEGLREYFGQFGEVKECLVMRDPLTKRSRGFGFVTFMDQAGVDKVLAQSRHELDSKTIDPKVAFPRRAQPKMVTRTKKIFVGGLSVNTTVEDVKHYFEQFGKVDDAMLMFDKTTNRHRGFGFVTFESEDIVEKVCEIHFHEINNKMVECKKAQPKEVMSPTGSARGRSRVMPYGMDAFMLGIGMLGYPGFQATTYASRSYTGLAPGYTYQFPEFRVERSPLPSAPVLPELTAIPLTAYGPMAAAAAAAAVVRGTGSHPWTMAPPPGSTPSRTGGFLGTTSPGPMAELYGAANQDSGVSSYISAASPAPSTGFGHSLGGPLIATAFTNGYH
Assay: nsRBNS (natural sequence RNA bind-n-seq); RBNS binding buffer (assumed for nsRBNS): 25 mM Tris pH 7.5, 150 mM KCl, 3 mM MgCl2, 0.01% Triton X-100, 500 ug/ml BSA, 20 U/ml SUPERase-In, 4 C; UNK is unkempt and MSI1 is Musashi-1; names of the RNAs are library labels; protein concentration not given here; high values mean tight binding

Binder	binding signal [enrichment R]
B1	0.441
B2	0.561
B3	7.45
B4	0.476
B5	2.94
B6	2.18
B7	23.3
B8	0.498
B9	0.556
B10	0.208
B11	0.599
B12	0.664
B13	0.316
B14	1.27
B15	1.01
B16	0.712
B17	0.592
B18	0.483
B19	2.12
B20	0.603
B21	0.332
B22	0.686

— PMC12136788
